Results published in the supplement of paper PMC12067230.
Single values of this set are uncertain.

Assay: amyloid nucleation score relative to library mode (yeast Sup35 reporter selection) (log enrichment difference); higher = more amyloid nucleation; sequences are the first 22 residues of the Bri2 peptide extended by up to 12 random residues
Details: random library (experiment): 1;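 active = nucleation score significantly above 0 at FDR 0.05; inactive = not significantly above 0 or absent from output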
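Further: [psi-pin-] Saccharomyces cerevisiae expressing SupN fusions, induced by 100 µM Cu2SO4, selected 7 d at 30 °C without adenine and uracil, scored by deep sequencing of output versus input.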

Sequence | amyloid nucleation score
EASNCFAIRHFENKFAVETLICVICRRELIDKGS | inactive
EASNCFAIRHFENKFAVETLICVICSWYGCDQYV | 7.85
EASNCFAIRHFENKFAVETLICVICTTEVTLYVW | inactive
EASNCFAIRHFENKFAVETLICVIDLNT | 4.39
EASNCFAIRHFENKFAVETLICVIDVGWRLGVRG | 0.804
EASNCFAIRHFENKFAVETLICVIEGSLAVVE | inactive
EASNCFAIRHFENKFAVETLICVIGPKIARNKWP | inactive
EASNCFAIRHFENKFAVETLICVIKKVNFACLGW | inactive
EASNCFAIRHFENKFAVETLICVIKPLDFASSRT | 4.34
EASNCFAIRHFENKFAVETLICVILFSRRKWELW | inactive
EASNCFAIRHFENKFAVETLICVIMCECDASV | 7.76
EASNCFAIRHFENKFAVETLICVIMMKKISSKYV | inactive
EASNCFAIRHFENKFAVETLICVIRARRGFSNLV | inactive
EASNCFAIRHFENKFAVETLICVIRKL | inactive
EASNCFAIRHFENKFAVETLICVISYMIMSVRSV | inactive
EASNCFAIRHFENKFAVETLICVITGRYSLLRCR | inactive
EASNCFAIRHFENKFAVETLICVITLVFQLPICF | inactive
EASNCFAIRHFENKFAVETLICVITMLVKCGREV | inactive
EASNCFAIRHFENKFAVETLICVITNVVYRLWSC | inactive
EASNCFAIRHFENKFAVETLICVITSVARRRHLV | inactive
EASNCFAIRHFENKFAVETLICVIVE | inactive
EASNCFAIRHFENKFAVETLICVIVFRFTLGDQL | inactive
EASNCFAIRHFENKFAVETLICVIVLGVVVLHAG | 5.12

Sequence | amyloid nucleation score
EASNCFAIRHFENKFAVETLICVKCGCCGKVEWG | 5.67
EASNCFAIRHFENKFAVETLICVKCNG | inactive
EASNCFAIRHFENKFAVETLICVKCRSGGEQVGM | 3.55
EASNCFAIRHFENKFAVETLICVKCSTVCGEPYF | 4.81
EASNCFAIRHFENKFAVETLICVKEFGTVQRLVR | inactive
EASNCFAIRHFENKFAVETLICVKFEATGREDWG | inactive
EASNCFAIRHFENKFAVETLICVKFLWNSSELWC | inactive
EASNCFAIRHFENKFAVETLICVKGLVSYSGLLV | inactive
EASNCFAIRHFENKFAVETLICVKIS | inactive
EASNCFAIRHFENKFAVETLICVKLSF | 5.51
EASNCFAIRHFENKFAVETLICVKMKCSLMEDGG | inactive
EASNCFAIRHFENKFAVETLICVKNRWVYCIRRC | inactive
EASNCFAIRHFENKFAVETLICVKNVQMGANVTQ | 3.62
EASNCFAIRHFENKFAVETLICVKPSVESGRSSV | -0.0664
EASNCFAIRHFENKFAVETLICVKPVGFMGHGVG | inactive
EASNCFAIRHFENKFAVETLICVKRLAN | inactive
EASNCFAIRHFENKFAVETLICVKRRPCTEFQPY | inactive
EASNCFAIRHFENKFAVETLICVKSEMSSCNILL | 2.02
EASNCFAIRHFENKFAVETLICVKSTRNADDGYQ | 0.153
EASNCFAIRHFENKFAVETLICVKSTRNKHWVLC | inactive
EASNCFAIRHFENKFAVETLICVKTPGISGVKGA | inactive
EASNCFAIRHFENKFAVETLICVKVDLLRNGRDH | inactive

Same assay, conditions: random library (experiment): 2

Sequence | amyloid nucleation score
EASNCFAIRHFENKFAVETLICVICSTCYAKRWN | inactive
EASNCFAIRHFENKFAVETLICVIFRF | 4.1
EASNCFAIRHFENKFAVETLICVIGAVYSALTVA | inactive
EASNCFAIRHFENKFAVETLICVIGDIGCVISCY | inactive
EASNCFAIRHFENKFAVETLICVIGDYFNPNIIR | 5.13
EASNCFAIRHFENKFAVETLICVIGNWYLWASNA | 2.95
EASNCFAIRHFENKFAVETLICVIGVGPVSGLGM | 6.92
EASNCFAIRHFENKFAVETLICVIIERFRCGMCK | inactive
EASNCFAIRHFENKFAVETLICVIISVKLFSVDV | inactive
EASNCFAIRHFENKFAVETLICVIKFYSYVWTLG | inactive
EASNCFAIRHFENKFAVETLICVIKLMVFVDSWK | inactive
EASNCFAIRHFENKFAVETLICVILAFKLVNAVL | inactive
EASNCFAIRHFENKFAVETLICVILD | 3.51
EASNCFAIRHFENKFAVETLICVILFRNGTELFV | 0.799
